According to the supplement of paper PMC10369915:
The list shows a part of the results. No stated cut-off is given here; in the data, active = 3.2 or more and inactive = the rest. Only a few entries rise above the background.

B1: RBL2_Y544_P547A (peptide)
chain: VVTFSYKPAGN
B2: RBL1_Y792_K794N_YF (peptide)
chain: SLALFYRNVFH
B3: RECQL5_Y478 (peptide)
chain: GGRKGYGDFSR
B4: RET_Y791_L790F (peptide)
chain: HVIKFYGACSQ
B5: RB1_Y454 (peptide)
chain: GVRLYYRVMES
B6: REEP3_Y170 (peptide)
chain: VGQRPYQPLPE
B7: RB1_Y454_YF (peptide)
chain: GVRLFYRVMES
B8: REEP3_Y170_Q171R (peptide)
chain: VGQRPYRPLPE
B9: RBBP6_Y87 (peptide)
chain: STSKTYVISRT
B10: RECQL4_Y353_R355Q (peptide)
chain: HDRGNYVQLNM
B11: RBM10_Y41_R46H (peptide)
chain: YRDMDYRSYPH
B12: RBM4_Y361_A359T (peptide)
chain: ADRTRYSAFGG
B13: RBM10_Y44_R46H (peptide)
chain: MDYRSYPHEYG
B14: RET_Y791_Y791F (peptide)
chain: HVIKLFGACSQ
B15: REPS2_Y462_S463F (peptide)
chain: PRSRSYFSTSI
B16: RBM47_Y541_G538R (peptide)
chain: IYRASYVPFAA
B17: RERE_Y1259 (peptide)
chain: RTLSEYARPHV
B18: RECQL_Y492_D495H (peptide)
chain: KNITEYCRHLI
B19: RBM10_Y41_YF (peptide)
chain: FRDMDYRSFPR
B20: RECQL_Y492_K487T (peptide)
chain: TNITEYCRDLI
B21: RBMX_Y190 (peptide)
chain: RGRDSYGGPPR
B22: RECQL5_Y478_D480G (peptide)
chain: GGRKGYGGFSR
B23: REPS2_Y462 (peptide)
chain: PRSRSYSSTSI
B24: RBL1_Y796 (peptide)
chain: FYRKVYHLASV
B25: RECQL_Y492 (peptide)
chain: KNITEYCRDLI
B26: RB1_Y454_M457R (peptide)
chain: GVRLYYRVRES
B27: RBM10_Y44_YF (peptide)
chain: MDFRSYPREFG
B28: RB1_Y805_N803K (peptide)
chain: PGGKIYISPLK
B29: RET_Y752_R749T (peptide)
chain: KGTAGYTTVAV
B30: RBBP6_Y87_R91Q (peptide)
chain: STSKTYVISQT
B31: RECQL5_Y484 (peptide)
chain: GDFSRYDEGSG
B32: RET_Y791 (peptide)
chain: HVIKLYGACSQ
B33: RET_Y1062_M1064T (peptide)
chain: IENKLYGTSDP
B34: RBM10_Y41 (peptide)
chain: YRDMDYRSYPR
B35: RBM10_Y48_R46H_YF (peptide)
chain: SFPHEYGSQEG
B36: RBM10_Y48 (peptide)
chain: SYPREYGSQEG
B37: RET_Y1062 (peptide)
chain: IENKLYGMSDP

Assays:
Experiment in all cases: enrichment score (SH2-bound / input frequency) (ratio); bacterial display of known human phosphotyrosine sites (pTyr-Var adds point mutants) read by sequencing; higher = stronger binding; tyrosines were phosphorylated by kinases first
Conditions in all cases: peptide library: pTyr-Var
SHP2 C-SH2 domain E139D = target: SHP2 C-SH2 domain E139D
[1] = target: SHP2 C-SH2 domain wild-type
SHP2 N-SH2 domain L43F = target: SHP2 N-SH2 domain L43F
SHP2 N-SH2 domain T42A = target: SHP2 N-SH2 domain T42A
SHP2 N-SH2 domain T52S = target: SHP2 N-SH2 domain T52S
[2] = target: SHP2 N-SH2 domain wild-type
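Further: displayed peptides selected on beads carrying the immobilized SH2 domain, with library peptides lacking any tyrosine serving as negative controls.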

Row | Binder | enrichment score (SHP2 C-SH2 domain E139D) | enrichment score [1] | enrichment score (SHP2 N-SH2 domain L43F) | enrichment score (SHP2 N-SH2 domain T42A) | enrichment score (SHP2 N-SH2 domain T52S) | enrichment score [2]
1 | B1 | inactive: 1.4 | inactive: 1.57 | inactive: 1.84 | inactive: 2.1 | inactive: 1.83 | inactive: 1.32
2 | B2 | inactive: 0.49 | inactive: 0.436 | inactive: 0.439 | inactive: 0.396 | inactive: 0.463 | inactive: 0.609
3 | B3 | inactive: 0.629 | inactive: 0.55 | inactive: 0.558 | inactive: 0.609 | inactive: 0.683 | inactive: 0.75
4 | B4 | inactive: 1.11 | inactive: 1.01 | inactive: 0.77 | inactive: 0.937 | inactive: 0.869 | inactive: 1.08
5 | B5 | inactive: 0.828 | inactive: 1.17 | inactive: 0.971 | inactive: 0.679 | inactive: 0.818 | inactive: 1.1
6 | B6 | inactive: 0.699 | inactive: 0.67 | inactive: 0.685 | inactive: 0.598 | inactive: 0.617 | inactive: 0.764
7 | B7 | inactive: 1.12 | inactive: 1.04 | inactive: 0.962 | inactive: 0.848 | inactive: 0.893 | inactive: 1.11
8 | B8 | inactive: 0.916 | inactive: 0.743 | inactive: 0.868 | inactive: 0.579 | inactive: 0.715 | inactive: 0.815
9 | B9 | inactive: 0.523 | inactive: 0.43 | inactive: 0.54 | inactive: 0.494 | inactive: 0.509 | inactive: 0.627
10 | B10 | inactive: 1.04 | inactive: 1.38 | inactive: 1.97 | active: 4.75 | inactive: 2.26 | inactive: 1.3
11 | B11 | inactive: 0.953 | inactive: 0.728 | inactive: 0.784 | inactive: 0.583 | inactive: 0.68 | inactive: 0.687
12 | B12 | inactive: 0.65 | inactive: 0.579 | inactive: 0.535 | inactive: 0.484 | inactive: 0.575 | inactive: 0.759
13 | B13 | inactive: 0.743 | inactive: 0.6 | inactive: 0.682 | inactive: 0.58 | inactive: 0.587 | inactive: 0.565
14 | B14 | inactive: 0.89 | inactive: 0.876 | inactive: 0.647 | inactive: 0.823 | inactive: 0.797 | inactive: 0.93
15 | B15 | inactive: 0.566 | inactive: 0.377 | inactive: 0.443 | inactive: 0.478 | inactive: 0.565 | inactive: 0.507
16 | B16 | inactive: 0.751 | inactive: 0.749 | inactive: 0.824 | inactive: 0.785 | inactive: 0.882 | inactive: 0.873
17 | B17 | inactive: 0.961 | inactive: 0.862 | inactive: 0.87 | inactive: 0.939 | inactive: 0.757 | inactive: 1.09
18 | B18 | inactive: 0.991 | inactive: 1.07 | inactive: 0.995 | inactive: 0.834 | inactive: 1.03 | inactive: 1.11
19 | B19 | inactive: 0.86 | inactive: 0.749 | inactive: 0.767 | inactive: 0.641 | inactive: 0.878 | inactive: 0.801

Row | Binder | enrichment score (SHP2 C-SH2 domain E139D) | enrichment score [1] | enrichment score (SHP2 N-SH2 domain L43F) | enrichment score (SHP2 N-SH2 domain T42A) | enrichment score (SHP2 N-SH2 domain T52S) | enrichment score [2]
20 | B20 | inactive: 1.3 | inactive: 1.35 | inactive: 1.18 | inactive: 1.18 | inactive: 1.21 | inactive: 1.61
21 | B21 | inactive: 0.316 | inactive: 0.281 | inactive: 0.342 | inactive: 0.427 | inactive: 0.315 | inactive: 0.31
22 | B22 | inactive: 0.291 | inactive: 0.27 | inactive: 0.367 | inactive: 0.405 | inactive: 0.383 | inactive: 0.337
23 | B23 | inactive: 0.805 | inactive: 0.249 | inactive: 0.137 | inactive: 0.299 | inactive: 0.218 | inactive: 0.258
24 | B24 | inactive: 1.02 | inactive: 0.799 | inactive: 0.782 | inactive: 0.628 | inactive: 0.839 | inactive: 1.03
25 | B25 | inactive: 1.21 | inactive: 1.43 | inactive: 1.31 | inactive: 1.12 | inactive: 1.27 | inactive: 1.1
26 | B26 | inactive: 0.239 | inactive: 0.283 | inactive: 0.206 | inactive: 0.276 | inactive: 0.267 | inactive: 0.196
27 | B27 | inactive: 0.733 | inactive: 0.735 | inactive: 0.852 | inactive: 0.665 | inactive: 0.729 | inactive: 0.648
28 | B28 | inactive: 1.39 | inactive: 2.28 | inactive: 1.5 | inactive: 1.16 | inactive: 1.27 | inactive: 1.55
29 | B29 | inactive: 0.696 | inactive: 1.07 | inactive: 0.871 | inactive: 1.73 | inactive: 1.07 | inactive: 0.807
30 | B30 | inactive: 0.818 | inactive: 0.688 | inactive: 0.733 | inactive: 0.632 | inactive: 0.639 | inactive: 0.771
31 | B31 | inactive: 0.483 | inactive: 0.474 | inactive: 0.401 | inactive: 0.44 | inactive: 0.556 | inactive: 0.621
32 | B32 | inactive: 0.663 | inactive: 1.01 | inactive: 0.911 | inactive: 0.752 | inactive: 0.785 | inactive: 0.905
33 | B33 | inactive: 0.658 | inactive: 0.682 | inactive: 0.785 | inactive: 0.612 | inactive: 0.772 | inactive: 0.651
34 | B34 | inactive: 0.862 | inactive: 0.743 | inactive: 0.724 | inactive: 0.744 | inactive: 0.822 | inactive: 0.944
35 | B35 | inactive: 0.862 | inactive: 0.56 | inactive: 0.507 | inactive: 0.63 | inactive: 0.761 | inactive: 0.447
36 | B36 | inactive: 0.522 | inactive: 0.528 | inactive: 0.538 | inactive: 0.443 | inactive: 0.514 | inactive: 0.692
37 | B37 | inactive: 2.82 | inactive: 0.903 | inactive: 0.802 | inactive: 0.836 | inactive: 0.816 | inactive: 0.95
